The chains are these.
B1: TPR 5TU (parent)
chain: GGAUCUUCUCGAUCUAACAAAAAAGACAAAUCUGCCACAAAGCUUGAGAGCAUCUUCGGAUGCAGAGGCGGCAGCCUUCGGUGGCGCGAUAGCGCCAACGUUCUCAACUAUGACACGCAAAACGCGUGCUCCGUUGAAUGGAGUUUAUCAUG

This sample is rich in variants without activity. Some results are limits rather than exact numbers.

Variants of B1 are the subject of the data set. Description: polymerase ribozyme fitness, log enrichment relative to wild type (log ratio); higher = more active; in vitro selection for triplet polymerase activity. The method, boiled down:
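A single round of triplicate in vitro selection, including frozen incubation at −7 °C, was applied to PCR-built, transcribed mutant libraries of each subunit of a heterodimeric triplet polymerase ribozyme. Illumina sequencing of input and output libraries retained genotypes with ≥10 input reads and ≥1 read per output. Fitness is the base-2 logarithm of genotype enrichment divided by wild-type enrichment, from inverse-variance-weighted replicate averages.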
As for GGCUCUUCUCGAUCUAACAAGAAAGCCAAAUCUGCCACGGAGCUUGAGAGCAGCUUGGGAUGCAGACGCGGUAGCCUUCGGUGGCGUGAUAGCGCCAACGUUCUCAACUAUGACACGCAAAACGCGUGCUCCGAUGAAUGGAGUUUAUCAUG, the “polymerase ribozyme fitness (log ratio)” value was at most -4.2.
For GGCUCUUGGCGAUCUAACAAAAAAGACAAAUCUGCCACAAAGCUUGAGAGCAUCUUCGAAUGCAGAGGCGGCAGCCUUCGGUGGCGAGAUACCGCCAACGUUCUCAACUAUGACACCCAAAACGCGUGCUCCUUUGAAUGGAGUUUAUCAUG, the “polymerase ribozyme fitness (log ratio)” value was at most -4.2.
The same measure for GGCUCUUCUCGAUCUGACAAAUAAGAAAAAUCUGCCACAAAGCUUGAGAGCAACUUCGAAUGCAGAGGCGGCAGCCUUCGGUGGCGCGAUAUCGCCAACGUUCUCAACUAUGACACGCAAAACGCGUGCUCCGUUGAAUGGAGUUUAUCAUG: at most -4.2; for GGCUCUUCUCGAUCUGACAAUAAAGACAAAUCUGCCACAAAGAUUGAGAGCAUCUUCGGGUGCAGAGGCGGCAGCCUUCGGUGGCGCGAUAGGGCCAACGUUCUCAACUAUGACACGCAAAACGAGUGCUCCGUUGAAAGGGGUUUAUCAUG: at most -4.2; for GGCUCUUCUCGAUCUAACAAAACAGACAAAUCUGCCACAAAGCUUGAGAGCAUCUUCGGAUGCAGAGGCGGCAACCUUCGGUGGAGCGAUAGCGCCAACGUUUUCAACUAUGACACGCAAAACGCGUGCACCGUUGAAUGGAGUUUAUCAUG: at most -4.2.
The same measure for GGCUCUUCUUGAUCUAACAAACAAGUCAAAUCUGCCAGAAAGCUUGAGAGCAUCUUCGGAUGCAGAGGCGGCAUCCUUCGGUGGCGUGAUAACGCCAACGUUCUCAACUAUGACACGCAAAACGCGUGACCCGUUGAAUGGAGUUUAUCAUG: at most -4.2; for GGCUCUUCUCGAUCUAACAAAAAAGACAAUUCUGCCACAAAGCUUGAGAGCAUCUUCGGAUGCAGAGGCGGCAGCCUUCGGUGGCGCGAUAGCGGCAACGUUCUCAACUAUGACACGCAAAACGCGGGCUCCGUCGAAUGGAGUUUAUCAUG: at most -4.2; for GGCUCUUCUCGAUUUAACAAAAAAGACAAAUCUGCCACAAAGCUUGAGAGCUUCUACGGAUGCAGAGGCGGCAGCCUUCGGUGGCGAGAUAGCGCCAACGUUCUCAACUAUGACACGCAUAACGCGUGCUCCGUUGAAUGCAGUUUAUCAUG: at most -4.2.
The same measure for GGCUCUUCUCGAUCUAACAAAAACGACAAAUCUGCCACAAAGCUUGAGAUCAUCUUCGGAUGCAGAGGCGGCAGUCUUCGGUGGCGCGAGAGCGCUAACGUUCUCAACUAUGACACGCAAAACGCGUGCUCCUUUGAAAGGAGUUUAUCAUG: at most -4.2; for GGCUCUUCUCGAUCUAACAAAAAAGACAAAUCUGCCACAAAGCUUGAGAGCAUCUUCGGUUGCAGAGGCGGCAGCCUUCGGUGGCGUGAUAGCGCCAACGUUCUCAACUAUGAGACGCAACACGCGUGCUCCGUUGAAUGGAGUUUAUCAUG: at most -4.2; for GGCUCUUCUCGAUCUACCUAAAAACACAAAUCUGCCACAAAGCUUGAGAGCAUCUUCGGAUGCAGAGGCGGCAGCCUUCGGUGGCGCGAUAGUGCCAACGUUCUCAACUAUGACGCGCAUAACGCGUGCUCCGUUGAAUGGAGUUUAUCAUG: at most -4.2.
Take GGCUCUUCUCGAUGUAACAAAAAAGAUAAAUCUGCCACAAAGCUUGAGAGCAUCUUCGGAUGCAGAGGCGGCAGCCUUCGGUGGUGCGAUAGCGCCAACGUUCUCAACUAUGACACGCAAAACGCGUGCUCCGUUGAAUGGAGGUUAUCAUG: the “polymerase ribozyme fitness (log ratio)” value was -2.9.
Regarding GGCUCUUCUCGAUCUAACGAAAAAGACAAAUCUGCCACAAAGCUUGAGAGCAUCUUCGGAAGCAGAGGCGGCAGCCGUCGGUGGUGCGAUAGCGCCAACGUUCUCAACUAUGACACGCAAAACGAGUGCUCCGUUGAAUGGAGUUUAUCAUG, the “polymerase ribozyme fitness (log ratio)” value is at most -4.2.
For the variant GGCUCUUCUCGAUCUAACAAACUAGACAAAUCUGCCACAAAUCUUGAGAGCAUCUUCGGAUGCGGAGGCGGCAGCCUUCGGUGGCGAGAUAGCGCCAACGUUCUCAACUAUGACACGCAAAACGCGUGCUCCGUUGAAUGGAGUUUAUCAUG, the “polymerase ribozyme fitness (log ratio)” value is at most -4.2.
The result for GGCUCUUCUCGAUCUAACAAAAAAGACUAAACUGCCACAAAGCUUGAGCGCAUCUUUGGAUGCAGAGGCGGCAGCCUUCGGUGGCGCGAUAGCGCCAACGUUCUCAACUAUGACACGCAAAACGCGUGCUCCGUCGAACGGAGUUUAUCAUG reads at most -4.2.
For the variant GGCUCUUCUCGAUCUAACAAAAAAGACAAAUCUGCCACAUAGCUUGAGAGCAUCUACGGGUGCAGAGGCGGCAGCCUUCGGUGGCGCGAUAGCGCGAACGUUCUCAACUAUGACACGCAAAACGCGUGCUCCGUUGAAUUGAGUUUAUCAUG, the “polymerase ribozyme fitness (log ratio)” value is at most -4.2.
The result for GGCUCUUCUCGAUCUAACAAAAAAGGCAAAUCUGCCACAAAGCUUGACAGCAUCUUCGGAUGCAGAGGCGGCAGCCUUCGGUGGCGCGAUAGCGCCAACGUUCUCAACUACGACACGCAAAACGCGUGCUCCGUUGAAAGGAGUUCAUCAUG reads at most -4.2; that for GGCUCUUCUCGAUCUAACAAAAAAGACAAAUCUGCCACAAGGCAUGAGAGUAUCUUCGGAUGCAGAGGCGGCAGCCUUCGGUGGCGUGAUAGCGCCAACGUUCUCUGCUAUGACACGCAAAACGCGUGCUCCGUUGAAUGGAGUUUAUCAUG, at most -4.2; that for GGCUCUUCUGGAUCUAACAAAAAAGACAAAUCUGCCACAAAGCUUGAGAGCAUCUUCGGAUUCAGAGCCGGCAGCCUUCGGUGGCGUGAUAGCGCCAACGUUCUCACCUAUGACACGCAAAAUGCGUACUCCGUUGCACGGAGUUUAUCAUG, at most -4.2.
On to GGCUCUUCUCGAUUUAACAAAAAAGACCAAUCUGCCACAAAGCUUGAGACCAUCUUCGUAUGCAGAGGCGGCAGCCUUCGGUGGCGUGAUAGCGCCAUCGUUCUCAACUAUGACACGCAAAACGCGUGCUCCUUUGAAUGGAGUUUUUCAUG, for which the “polymerase ribozyme fitness (log ratio)” value is at most -4.2.
Take GGCUCUUCUGGAUCUAACAAAAAAGACAAAUCUGCCACAAAGCUUGAGAGCAUCUUCGUAUGCAGAGGCGGCAGCCUUCAGUGGAGCGAUAGCGCCAACGUUCUCAACUAUGACACGCAAAACGCGUGCUCCGUUGAAUGGAGUUUAUCAUG: the “polymerase ribozyme fitness (log ratio)” value was at most -4.2.
Regarding GGCUCUUCUCGAUCUAACAAAAAAGCCAAAUCUGCCACAAAGCUUGAGAGCAUCUUCGGAUGCAGAGGCGGCAGCCUUCGGUGGCGCGAUAGCGCCAACGAUCUCAACGAUGACACGCAAAACGCGUGCUCCGUUGAAUGGAGUUUAUCAUG, the “polymerase ribozyme fitness (log ratio)” value was at most -4.2.
For the variant GGCUCUUCUCGAUCUAACAAAUAAGACAAAUCUGCCGCAAAGCUUGAGAGCAUGUUUGGAUGCAGAGGCGGCAGCCUUCGGUGGUGCCAUAGCGCCAACGUUCUCAACUAUGACACCCAAAACGCGUGUUCCGUUGAAUGGAGUUUAUCAUG, the “polymerase ribozyme fitness (log ratio)” value was at most -4.2.
The result for GGCUUUUCUCGAUCUAACAAAAAAGACAAAUCUGCCACAAAGCUUGAGAGCAUCUUCGGAUCCAGAGGCGGCAGCCUUCGGUGGCGCGAUAGCGCCAACGUUCUCAACUAUGACACGCAAAACGCGUGCUCCGUUGAAUGGAGUUUAUCAUG reads -1.89; that for GGCUCUUCUCGAUCUAACUAAAAAGACAAAUCUGCCACAAAGCUUGAGAGCAUCCGCGGAUGCAGAGGCGGCAGCCUUCGGUGGGGCGAUAGCGCCAACGUUCUCAAAUAUGACACGCAAAACGAGUGCUCCGUUGAAUGGAGUUUAUCAUG, at most -4.2.
The same measure for GGCUGUUCUCGAUCUAACAAAAAAGACAAAUCUGCAACAAAGCUUGAGAGCAUCUUCGGACGCAGAGGCGGCAGGCUUCGGUGGCGUGAUAGCGCCAACGUUCUCAACUAUGACACGUAAAACGCGUGCUCCGUUGAAUGGAGUUUAUCAUG: at most -4.2; for GGCUCUUCUCGUUCUAACAAAAAAGACAAAUCUGCCACAAAGCUUGAGAGCAUCUUCCGAUGCAGAGGCGGCAGCCUUCGGUGGCGCGAUAGCGCCAACGUUCUCAACUAUGACACGUAAAACGCGUGCUCCGUUGAAUGGAGUUUAUCAUG: -1.52; for GGCUCUUCUCGAUCUAACAAAAAAGACAAAUCUGCCACAGAGCUUGAGAGCGUCUUCGGAUGCAGAGGCGGCAGCCUUCGGUGGCUCGAUAGCGCCAACGUUCUCAAGUAUGACACGCAAAACGCGUGCUCUGUUGAAUGGAGUUUAUCAUG: at most -4.2.
As for GGCUCUUCUCGAUCUAUCAAAAAAGACAAAUCUGCUAUAAAGCUUGAGAGCAUCUUCGGAUGCAGAGGCGGCAGCCUUCGGUGGCCCGAUAGCGCCAACGUUCUCCACUAUGACACGCAGAACGCUUGCUCCGUUGAAUGGAGUUUAUCAUG, the “polymerase ribozyme fitness (log ratio)” value is at most -4.2.
The same measure for GGCUCUUCUCGAUCUAACAAAACAGACAAAUCUGCCAAAAAGCUUGAGAGCAUCUUCGGAUGCAGAGGCGGCAGCCUUCGGUGACGCGAUAGCGCCAACGUUCUCAACUAUGACACGCAAAACGCGUGCUCCGUUGAAUGGAGUUUAUCAUG: at most -4.2; for GGCUCUUCUGGAUCUGACAAAAAAGACAAAUCUGCCACAAAGCUUGAGAGCAUCUUAGGAUGCAGAGGCGGCAGCCUUCGGUGGCCCGAUCGCGCCAACGUUCUCAACUAUGACACGCAAAACGCGUCCUCCGUUGAAUGCAGUUUAUCAUG: at most -4.2; for GGCUCUUCUCGAUCUAAGAAAAAAGACAAAUCUGCCACAAAGCUUGAGAGCAUCUUCGGAUGCAGAGGCGGCAGCCUUCGGUGGCGCGAUAGAGCCAACGUUCUCAACUAUGACACGCAAAACGCGUGCACCGUUGAAUGGAGUUUAUCAUG: at most -4.2.
Regarding GGCUCUUCUCGAUCUAACAGAUAAGACAAAUCUGCGACAAAGCUUGAGAGCAUCUUCGGUUGCAGAGGCGGCAGCCUUCGGUGGCGUGAUAGCGCCAACGUUCUCAACUAUGACACGCAAAACGCGUGCUCCGUUGAAUAGAGUUUAUCAUG, the “polymerase ribozyme fitness (log ratio)” value was at most -4.2.
As for GGCUCUUCUCGAUCUAACAAAAAAGGCAACUCUGCCACAAAGCUUGAGAGCAUCUACAGAUGCAGAGGCGGCAGCCUUCGGUGGCGCGAUAGCGCCAACGUUCUCAACUAUGACACGCAAAACGCGUGCUCUGGUGAAUGGAGUUUAUCAUG, the “polymerase ribozyme fitness (log ratio)” value was at most -4.2.
The result for GGCUUUUCUCGAUCUAACAAAAAAGUCAAAUCUGCCACAAAGCUAGAGCGCAUCCUCGGAUUCAGAGGCGGCAGCCUUCGGUGGCGCGAUAGAGCUAACGUUCUCAACUAUGACACGCAAAACGCGUGCUCCGUUGAAUGGAGUUUAUCAUG reads at most -4.2; that for GGCUCUUCUCGUUCUAACAAAAAAGACAAAUCUGCCACAAAACUUGAGAACAUCUUCGGAUGCAGAGGCGGCAGCUUUCGGUGUCGCGAUAACGCCAACGUUCUCACCUAUGACAGGCAAAACGCGUGCUCCGUUGAAUGGAGUUUAUCAUG, at most -4.2; that for GGCUCUUCUCGAUCUAACAAACAAGACAAAUGUGCCACAAAGCUUGAGAGCAUCUUCGGAUGCAGAGGCGGCAGCCUUCGGUGGCGCGAUAGCGUCAACGUUUUCAACUAUGACACGCACCACGCGUGCUCCGCUGAAUGGAGUUUAUCAUG, at most -4.2.
The result for GGCUCUUCUCGAUCUGACAAAAAAGACAAAUCUGCCACAAAGCUUGAGAGCAUCUUUGGAUGCAGAGGCGGCAGCCUUCGGUGGCGCAAUAGCGACCACGUUCGCAACUAUGACACGCAAAACGCGUGCUCCGUUGAAUGGAAUUUAUCAUG reads at most -4.2.

These data come from the RNAGym collection of RNA variant scans (doi:10.1073/pnas.2313332121).
